Test results published in the antibiotic and cytotoxicity screens of Wong et al. (2023).
This is one part of the list.

Tested on: HepG2
Test: cytotoxicity call (relative viability < 0.9)
Details: 10 µM

Structure (SMILES) | cytotoxicity call
COc1ccc(CN(C)C[C@H]2OCCCC[C@H](C)Oc3ccc(NC(=O)Nc4ccccc4)cc3C(=O)N([C@@H](C)CO)C[C@@H]2C)cc1 | inactive
C[C@@H]1CN([C@H](C)CO)C(=O)Cc2cc(NC(=O)Cc3cn(C)c4ccccc34)ccc2O[C@@H]1CN(C)C | inactive
CC(C)NC(=O)N(C)C[C@H]1OCCCC[C@@H](C)Oc2ccc(NC(=O)Nc3ccccc3)cc2C(=O)N([C@H](C)CO)C[C@@H]1C | inactive
Cc1ccc(S(=O)(=O)N(C)C[C@@H]2Oc3ccc(NC(=O)C4CC4)cc3CC(=O)N([C@H](C)CO)C[C@@H]2C)cc1 | inactive
C[C@H]1CN([C@@H](C)CO)C(=O)CCCn2cc(nn2)CO[C@@H]1CN(C)S(=O)(=O)c1ccc(-c2ccccc2)cc1 | inactive
C[C@H](CO)N1C[C@H](C)[C@H](CN(C)Cc2ccncc2)Oc2cc(C#CC(C)(C)O)ccc2S1(=O)=O | inactive
C[C@@H]1CCCCO[C@@H](CN(C)S(=O)(=O)c2ccc(Cl)cc2)[C@H](C)CN([C@H](C)CO)C(=O)c2cc(NC(=O)c3ccccc3)ccc2O1 | inactive
Nc1nnc([C@H]2CCCO2)s1 | inactive
C[C@@H]1CN([C@H](C)CO)C(=O)c2cc(NS(=O)(=O)c3cccs3)ccc2O[C@@H](C)CCCCO[C@@H]1CN(C)S(=O)(=O)c1cn(C)cn1 | inactive
C[C@@H]1CCCCO[C@@H](CN(C)C(=O)Nc2ccc(F)cc2)[C@@H](C)CN([C@H](C)CO)C(=O)c2cc(NC(=O)Nc3ccc4c(c3)OCO4)ccc2O1 | inactive
O=C(C[C@@H]1C=C[C@H](NC(=O)Nc2cc(F)ccc2F)[C@@H](CO)O1)NCCCN1CCOCC1 | inactive
C[C@H]1CN([C@@H](C)CO)C(=O)c2cc(NC(=O)Nc3ccc(C(F)(F)F)cc3)ccc2O[C@H]1CN(C)Cc1ccc(C(=O)Nc2ccccc2N)cc1 | inactive
Cc1ccc(S[C@]2(C(=O)NC3CC3)CC(=O)N(Cc3ccccc3C(F)(F)F)[C@@H]2c2ccc(CO)cc2)cc1 | inactive
C[C@H]1CN([C@@H](C)CO)C(=O)c2cc(NC(=O)C3CC3)ccc2O[C@@H]1CN(C)Cc1ccc(Oc2ccccc2)cc1 | inactive
C[C@H](CO)N1C[C@H](C)[C@H](CN(C)S(=O)(=O)c2ccc(F)cc2)Oc2cc(C#Cc3ccc(F)cc3)ccc2S1(=O)=O | inactive
C=COCCCCO | inactive
C(=N\c1ccc2ccccc2c1)/Nc1ccc2ccccc2c1 | inactive
COc1ccc(S(=O)(=O)N(C)C[C@@H]2OCCCC[C@H](C)Oc3ccc(NC(=O)Nc4cccc5ccccc45)cc3C(=O)N([C@H](C)CO)C[C@@H]2C)cc1 | inactive
C[C@H](CO)N1C[C@H](C)[C@@H](CN(C)C(=O)c2ccccc2)OCCCC[C@H](C)Oc2ccc(NC(=O)C3CCCCC3)cc2C1=O | inactive
COc1ccc(S(=O)(=O)N(C)C[C@@H]2OCCCC[C@H](C)Oc3ccc(NC(=O)Nc4cccc5ccccc45)cc3C(=O)N([C@@H](C)CO)C[C@H]2C)cc1 | inactive

Structure (SMILES) | cytotoxicity call
Cc1ccc(C(=O)NCCN2CCNC2=O)cc1 | inactive
COc1ccc2c3c(n(c2c1)C)[C@H](CO)N(CC1CCCCC1)C[C@]13CCN(CC1)Cc1nccs1 | inactive
COc1cc(NC(=O)CCN2CCC(OC(=O)Nc3ccccc3-c3ccccc3)CC2)c(Cl)cc1CNC[C@H](O)c1ccc(O)c2nc(O)ccc12 | active
CCS(=O)(=O)NCC[C@H]1CC[C@H](NS(=O)(=O)c2cccc(F)c2)[C@H](CO)O1 | inactive
C[C@@H]1CN([C@H](C)CO)S(=O)(=O)c2ccc(-c3ccc(F)cc3)cc2O[C@H]1CN(C)S(C)(=O)=O | inactive
C[C@@H]1CN([C@@H](C)CO)C(=O)c2cccc(NC(=O)c3nc4ccccc4s3)c2O[C@@H]1CN(C)Cc1ccc(Cl)c(Cl)c1 | inactive
COCC#Cc1cnc2c(c1)C(=O)N([C@H](C)CO)C[C@@H](C)[C@H](CN(C)S(=O)(=O)c1cn(C)cn1)O2 | inactive
CN(C)CC(=O)N1[C@@H]2c3ccc(-c4ccccc4)c(=O)n3C[C@H]1[C@H](CO)[C@H]2C(=O)N1CCOCC1 | inactive
CC(C)NC(=O)Nc1ccc2c(c1)C(=O)N([C@H](C)CO)C[C@@H](C)[C@@H](CN(C)CC1CCCCC1)OCCCC[C@H](C)O2 | inactive
COC(=O)C1=CO[C@@H](O[C@@H]2O[C@H](CO)[C@@H](O)[C@H](O)[C@H]2O)[C@@H]2[C@@H](CO)C=C[C@H]12 | inactive
COC1=C(N)C(=O)c2nc(-c3nc(C(=O)O)c(C)c(-c4ccc(OC)c(OC)c4O)c3N)ccc2C1=O | active
Cc1noc(C)c1NC(=O)N(C)C[C@H]1Oc2ccc(NS(=O)(=O)c3c(C)noc3C)cc2CC(=O)N([C@H](C)CO)C[C@H]1C | inactive
Cc1ncc([N+](=O)[O-])n1C[C@@H](CN1CCOCC1)OP(=O)(O)O | inactive
C[C@H]1CN([C@@H](C)CO)C(=O)c2cccc(NC(=O)Nc3ccc(C(F)(F)F)cc3)c2O[C@@H]1CN(C)C(=O)NC1CCCCC1 | active
C[C@H]1O[C@@H](OC[C@H]2O[C@@H](OC[C@]3(C)[C@H]4CC[C@@]5(C)[C@H](CC[C@H]6C7=CC(C)(C)CC[C@]7(C(=O)O)CC[C@@]65C)[C@@]4(C)CC[C@@H]3O)[C@@H](O)[C@@H](O)[C@@H]2O)[C@@H](O)[C@@H](O)[C@@H]1O | inactive
CC(C)NC(=O)Nc1ccc2c(c1)C(=O)N([C@@H](C)CO)C[C@@H](C)[C@H](CN(C)Cc1ccc(C(=O)O)cc1)O2 | inactive
CC(=O)N[C@@H]1[C@@H](O)[C@H](O)[C@H](CO)O[C@@H]1O | inactive
Cc1noc(C)c1NC(=O)N(C)C[C@@H]1OCCCC[C@@H](C)Oc2ccc(NS(=O)(=O)c3ccc(F)cc3)cc2C(=O)N([C@H](C)CO)C[C@H]1C | inactive
C[C@H]1NC(=O)[C@H](Cc2ccccc2)NC(=O)[C@@]23C(=O)N[C@@H](Cc4ccccc4)[C@@H]2[C@H](C)[C@@]2(C)O[C@H]2[C@H]3/C=C/C/C=C\CNC1=O | inactive
Nc1cccc(C2=NCCN2)c1 | inactive
